Assay results from patent US20100260668A1 (published 2010).

What was measured:
VEGF [1] = target: T1, VEGF (UniProt P15692 27-191, limits assumed); experiment: direct bind ELISA, antigen on plate; C-terminal VD
T1 construct: Bought antigen coated on the ELISA plate; also called vascular endothelial growth factor
T1 sequence (looked up): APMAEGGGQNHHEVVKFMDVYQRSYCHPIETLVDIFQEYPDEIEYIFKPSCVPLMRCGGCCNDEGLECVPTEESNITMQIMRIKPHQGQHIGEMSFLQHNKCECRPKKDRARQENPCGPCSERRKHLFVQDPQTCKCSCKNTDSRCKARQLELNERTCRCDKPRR

PlGF = target: T2, PlGF (UniProt P49763-2 21-149, limits assumed); experiment: direct bind ELISA, antigen on plate; N-terminal VD
T2 construct: Bought antigen coated on the ELISA plate; also called Placental GF; placental growth factor
T2 sequence (looked up): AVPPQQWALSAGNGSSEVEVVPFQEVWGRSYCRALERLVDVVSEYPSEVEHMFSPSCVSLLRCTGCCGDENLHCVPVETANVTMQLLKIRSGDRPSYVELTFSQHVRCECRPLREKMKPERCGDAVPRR

[2] = target: T3, human DLL4 extracellular domain (human, UniProt Q9NR61 part only, biotin label in the Notch-1 competition ELISA (sites not given)); experiment: competition ELISA: biotin-labelled human DLL4 ECD pre-mixed with DVD-Ig, then on coated human Notch-1 (competitor Notch-1)
T3 construct: extracellular domain; also called biotin labeled human DLL4 extracellular domain

DLL4 = target: T4, DLL4 (human, UniProt Q9NR61 27-685); experiment: flow cytometry on cells carrying the target, 2 ug/mL; N-terminal VD
T4 construct: whole, on cells; also called human DLL4

biotinylated VEGF = target: T5, biotinylated VEGF (UniProt P15692-4 27-191, limits assumed, biotinylated); experiment: capture ELISA, DVD-Ig captured by anti-human Fc, biotinylated VEGF; C-terminal VD
T5 sequence (looked up): T1 sequence (looked up)

hIGF1 = hIGF1 (human, UniProt P05019 part only); experiment: cell-based or functional assay
IGF2 = IGF2 (UniProt P01344 part only); experiment: cell-based or functional assay
VEGF [3] = target: T6, VEGF (UniProt P15692-4 27-191); experiment: SPR (Biacore); C-terminal VD
T6 sequence (looked up): T1 sequence (looked up)

EC50 (VEGF [1]): 4.63 nM
EC50 (PlGF): 0.21 nM
B1: DVD595 (bispecific antibody, human IgG1, kappa)
heavy: QVQLQQSGAELVKPGASVKISCKASGYTFTDYYINWVKLAPGQGLEWIGWIYPGSGNTKYNEKFKGKATLTIDTSSSTAYMQLSSLTSEDTAVYFCVRDSPFFDYWGQGTLLTVSSASTKGPEVQLVESGGGLVQPGGSLRLSCAASGYTFTNYGMNWVRQAPGKGLEWVGWINTYTGEPTYAADFKRRFTFSLDTSKSTAYLQMNSLRAEDTAVYYCAKYPHYYGSSHWYFDVWGQGTLVTVSS[omitted - human IgG1 constant region]
light: DIVLTQSPDSLAVSLGERVTMNCKSSQSLLNSGMRKSFLAWYQQKPGQSPKLLIYWASTRESGVPDRFTGSGSGTDFTLTISSVQAEDVAVYYCKQSYHLFTFGSGTKLEIKRTVAAPSVFIFPPDIQMTQSPSSLSASVGDRVTITCSASQDISNYLNWYQQKPGKAPKVLIYFTSSLHSGVPSRFSGSGSGTDFTLTISSLQPEDFATYYCQQYSTVPWTFGQGTKVEIKRTVAAPSVFIFPPSDEQLKSGTASVVCLLNNFYPREAKVQWKVDNALQSGNSQESVTEQDSKDSTYSLSSTLTLSKADYEKHKVYACEVTHQGLSSPVTKSFNRGEC
notes: HC linker short, LC linker long; also called DVD595VH; DVD595VL

IC50 [2]: 0.5 nM
B2: DVD044 (DLL4 (seq. 1) N-terminal / VEGF (seq. 1) C-terminal DVD-Ig) (bispecific antibody, human IgG1, kappa)
heavy: EVQLVESGGGLVQPGGSLRLSCAASGFTFTDNWISWVRQAPGKGLEWVGYISPNSGFTYYADSVKGRFTISADTSKNTAYLQMNSLRAEDTAVYYCARDNFGGYFDYWGQGTLVTVSSASTKGPEVQLVESGGGLVQPGGSLRLSCAASGYTFTNYGMNWVRQAPGKGLEWVGWINTYTGEPTYAADFKRRFTFSLDTSKSTAYLQMNSLRAEDTAVYYCAKYPHYYGSSHWYFDVWGQGTLVTVSS[omitted - human IgG1 constant region]
light: DIQMTQSPSSLSASVGDRVTITCRASQDVSTAVAWYQQKPGKAPKLLIYSASFLYSGVPSRFSGSGSGTDFTLTISSLQPEDFATTYYCQQSYTGTVTFGQGTKVEIKRTVAAPDIQMTQSPSSLSASVGDRVTITCSASQDISNYLNWYQQKPGKAPKVLIYFTSSLHSGVPSRFSGSGSGTDFTLTISSLQPEDFATYYCQQYSTVPWTFGQGTKVEIKRTVAAPSVFIFPPSDEQLKSGTASVVCLLNNFYPREAKVQWKVDNALQSGNSQESVTEQDSKDSTYSLSSTLTLSKADYEKHKVYACEVTHQGLSSPVTKSFNRGEC
notes: also called DVD044H/DVD044L

FACS Geometric Mean N-terminal (DLL4): 297
B3: DVD044 (bispecific antibody, human IgG1, kappa)
heavy: B2 heavy
light: B2 light
notes: DVD-Ig; also called DLL4 and VEGF DVD-Ig

EC50 (biotinylated VEGF): 2.3 nM
B4: DVD050 (bispecific antibody, human IgG1, kappa)
heavy: EVQLVESGGGLVQPGGSLRLSCAASGFSFSSEPISWVRQAPGKGLEWVSSITGKNGYTYYADSVKGRFTISADTSKNTAYLQMNSLRAEDTAVYYCARWGKKVYGMDVWGQGTLVTVSSASTKGPEVQLVESGGGLVQPGGSLRLSCAASGYTFTNYGMNWVRQAPGKGLEWVGWINTYTGEPTYAADFKRRFTFSLDTSKSTAYLQMNSLRAEDTAVYYCAKYPHYYGSSHWYFDVWGQGTLVTVSS[omitted - human IgG1 constant region]
light: DIQMTQSPSSLSASVGDRVTITCRASQSISSYLAWYQQKPGKAPKLLIYGASSRASGVPSRFSGSGSGTDFTLTISSLQPEDFATYYCQQYMSVPITFGQGTKVEIKRTVAAPDIQMTQSPSSLSASVGDRVTITCSASQDISNYLNWYQQKPGKAPKVLIYFTSSLHSGVPSRFSGSGSGTDFTLTISSLQPEDFATYYCQQYSTVPWTFGQGTKVEIKRTVAAPSVFIFPPSDEQLKSGTASVVCLLNNFYPREAKVQWKVDNALQSGNSQESVTEQDSKDSTYSLSSTLTLSKADYEKHKVYACEVTHQGLSSPVTKSFNRGEC
notes: DVD-Ig; also called NRP1 / VEGF DVD-Ig; DVD050H

N-terminal VD pIGF1R Cellular Assay (hIGF1 Neutralization IC50 nM) (hIGF1): 1.8 nM
N-terminal VD pIGFR1 Cellular Assay (IGF2 induced IC50 nM) (IGF2): 0.3 nM
B5: DVD042 (bispecific antibody, human IgG1, kappa)
heavy: QVQLVQSGAEVKKPGASVKVSCKASGYTFTSYDINWVRQATGQGLEWMGWMNPNSGNTGYAQKFQGRVTMTRNTSISTAYMELSSLRSEDTAVYYCARDPYYYYYGMDVWGQGTTVTVSSASTKGPEVQLVESGGGLVQPGGSLRLSCAASGYTFTNYGMNWVRQAPGKGLEWVGWINTYTGEPTYAADFKRRFTFSLDTSKSTAYLQMNSLRAEDTAVYYCAKYPHYYGSSHWYFDVWGQGTLVTVSS[omitted - human IgG1 constant region]
light: QSVLTQPPSVSAAPGQKVTISCSGSSSNIENNHVSWYQQLPGTAPKLLIYDNNKRPSGIPDRFSGSKSGTSATLGITGLQTGDEADYYCETWDTSLSAGRVFGGGTKLTVLGQPKAAPDIQMTQSPSSLSASVGDRVTITCSASQDISNYLNWYQQKPGKAPKVLIYFTSSLHSGVPSRFSGSGSGTDFTLTISSLQPEDFATYYCQQYSTVPWTFGQGTKVEIKRTVAAPSVFIFPPSDEQLKSGTASVVCLLNNFYPREAKVQWKVDNALQSGNSQESVTEQDSKDSTYSLSSTLTLSKADYEKHKVYACEVTHQGLSSPVTKSFNRGEC

IC50 [2]: 0.38 nM
B6: DVD257 (DLL-4 (seq. 1) N-terminal / PLGF (seq. 1) C-terminal DVD-Ig) (bispecific antibody, human IgG1, kappa)
heavy: EVQLVESGGGLVQPGGSLRLSCAASGFTFTDNWISWVRQAPGKGLEWVGYISPNSGFTYYADSVKGRFTISADTSKNTAYLQMNSLRAEDTAVYYCARDNFGGYFDYWGQGTLVTVSSASTKGPQVQLQQSGAELVKPGASVKISCKASGYTFTDYYINWVKLAPGQGLEWIGWIYPGSGNTKYNEKFKGKATLTIDTSSSTAYMQLSSLTSEDTAVYFCVRDSPFFDYWGQGTLLTVSS[omitted - human IgG1 constant region]
light: DIQMTQSPSSLSASVGDRVTITCRASQDVSTAVAWYQQKPGKAPKLLIYSASFLYSGVPSRFSGSGSGTDFTLTISSLQPEDFATTYYCQQSYTGTVTFGQGTKVEIKRTVAAPDIVLTQSPDSLAVSLGERVTMNCKSSQSLLNSGMRKSFLAWYQQKPGQSPKLLIYWASTRESGVPDRFTGSGSGTDFTLTISSVQAEDVAVYYCKQSYHLFTFGSGTKLEIKRTVAAPSVFIFPPSDEQLKSGTASVVCLLNNFYPREAKVQWKVDNALQSGNSQESVTEQDSKDSTYSLSSTLTLSKADYEKHKVYACEVTHQGLSSPVTKSFNRGEC
notes: also called 7H; VD257L

FACS Geometric Mean N-terminal (DLL4): 274
B7: DVD257 (bispecific antibody, human IgG1, kappa)
heavy: B6 heavy
light: B6 light
notes: DVD-Ig; outer AB015 (DLL4), inner AB047 (PlGF); also called DLL4 and PlGF DVD-Ig

koff (VEGF [3]): < 1e-06 s⁻¹
kon (VEGF [3]): 36700 M⁻¹ s⁻¹
B8: DVD038 (bispecific antibody, human IgG1, kappa)
heavy: [omitted - about 120 residues]ASTKGPEVQLVESGGGLVQPGGSLRLSCAASGYTFTNYGMNWVRQAPGKGLEWVGWINTYTGEPTYAADFKRRFTFSLDTSKSTAYLQMNSLRAEDTAVYYCAKYPHYYGSSHWYFDVWGQGTLVTVSS[omitted - human IgG1 constant region]
light: [omitted - about 100 residues]RTVAAPDIQMTQSPSSLSASVGDRVTITCSASQDISNYLNWYQQKPGKAPKVLIYFTSSLHSGVPSRFSGSGSGTDFTLTISSLQPEDFATYYCQQYSTVPWTFGQGTKVEIKRTVAAPSVFIFPPSDEQLKSGTASVVCLLNNFYPREAKVQWKVDNALQSGNSQESVTEQDSKDSTYSLSSTLTLSKADYEKHKVYACEVTHQGLSSPVTKSFNRGEC
notes: N-terminal VD HER-2, C-terminal VD VEGF; also called DVD038H; DVD038L

One block for each binder: values may come before it.
